Test [1] has as its target T1, human Ang-2 (human, UniProt O15123 19-496, limits assumed).
T1 construct: Sources differ by assay: R&D Systems 623-AN (mixture of 2 truncated versions) for initial screening; also called hAng-2; huAng-2
T1 sequence (looked up): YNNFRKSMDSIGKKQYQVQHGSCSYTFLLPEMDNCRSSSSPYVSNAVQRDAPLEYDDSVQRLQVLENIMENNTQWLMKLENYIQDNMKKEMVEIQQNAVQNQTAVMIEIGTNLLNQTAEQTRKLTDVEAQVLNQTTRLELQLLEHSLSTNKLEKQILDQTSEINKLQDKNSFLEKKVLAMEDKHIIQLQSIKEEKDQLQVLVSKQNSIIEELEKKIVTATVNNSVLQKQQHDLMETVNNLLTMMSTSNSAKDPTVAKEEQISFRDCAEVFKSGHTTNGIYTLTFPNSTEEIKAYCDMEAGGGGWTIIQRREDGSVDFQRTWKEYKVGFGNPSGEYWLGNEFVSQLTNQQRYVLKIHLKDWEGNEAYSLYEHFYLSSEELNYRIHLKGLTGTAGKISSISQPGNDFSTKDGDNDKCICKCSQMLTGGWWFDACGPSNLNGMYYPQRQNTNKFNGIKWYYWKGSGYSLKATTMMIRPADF
Briefly: BIAcore, peptibody captured on Protein G. For orientation: Surface plasmon resonance follows binding to a sensor surface in real time, without labels.

A further test addresses T2, murine Ang-1 (murine, UniProt O08538 20-498, limits assumed).
T2 construct: also called mAng-1
T2 sequence (looked up): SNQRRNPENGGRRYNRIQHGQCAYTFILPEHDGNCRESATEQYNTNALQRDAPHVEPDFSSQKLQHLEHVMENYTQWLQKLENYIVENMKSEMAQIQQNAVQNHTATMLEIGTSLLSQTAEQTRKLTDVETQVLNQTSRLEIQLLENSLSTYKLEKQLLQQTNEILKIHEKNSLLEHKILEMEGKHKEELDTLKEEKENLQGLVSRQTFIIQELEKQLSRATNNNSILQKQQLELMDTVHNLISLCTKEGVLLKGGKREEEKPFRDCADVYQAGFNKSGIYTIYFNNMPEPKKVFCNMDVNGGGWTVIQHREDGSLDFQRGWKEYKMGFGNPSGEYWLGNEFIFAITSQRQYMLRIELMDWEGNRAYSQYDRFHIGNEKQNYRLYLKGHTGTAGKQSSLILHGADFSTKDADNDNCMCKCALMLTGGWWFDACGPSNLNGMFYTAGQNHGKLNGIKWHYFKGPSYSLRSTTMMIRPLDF
Briefly: neutralization ELISA vs Tie-2-Fc. How it is done:
Plates were incubated at room temperature for about 1 hour, after which they were washed five times with PBS containing about 0.1 percent Tween-20. […] Absorbance was then read in a spectrophotomer at 370 nm.
On the technique in general: ELISA stands for enzyme-linked immunosorbent assay.

For test [2], the target named is T1, human Ang-2. Briefly: neutralization ELISA vs Tie-2-Fc. On the procedure: (§1) Microtiter plates to which human Ang-2 polypeptide was bound were prepared as described for the Affinity ELISA. […] Next, about 100 microliters per well of goat anti-mouse-IgG-HRP (Pierce Chemical CO., catalog #31432) was added at a dilution of 1:10,000 in PBS containing about 1 percent BSA. Plates were incubated at room temperature for about 1 hour, after which they were washed five times with PBS containing about 0.1 percent Tween-20. About 100 microliters per well of TMB substrate (described above) was then added and color was allowed to develop. Absorbance was then read in a spectrophotomer at 370 nm.

For another test, the target named is T3, murine Ang-2 (murine, UniProt O35608 19-496, limits assumed).
T3 construct: also called mAng-2; mouse Ang-2
T3 sequence (looked up): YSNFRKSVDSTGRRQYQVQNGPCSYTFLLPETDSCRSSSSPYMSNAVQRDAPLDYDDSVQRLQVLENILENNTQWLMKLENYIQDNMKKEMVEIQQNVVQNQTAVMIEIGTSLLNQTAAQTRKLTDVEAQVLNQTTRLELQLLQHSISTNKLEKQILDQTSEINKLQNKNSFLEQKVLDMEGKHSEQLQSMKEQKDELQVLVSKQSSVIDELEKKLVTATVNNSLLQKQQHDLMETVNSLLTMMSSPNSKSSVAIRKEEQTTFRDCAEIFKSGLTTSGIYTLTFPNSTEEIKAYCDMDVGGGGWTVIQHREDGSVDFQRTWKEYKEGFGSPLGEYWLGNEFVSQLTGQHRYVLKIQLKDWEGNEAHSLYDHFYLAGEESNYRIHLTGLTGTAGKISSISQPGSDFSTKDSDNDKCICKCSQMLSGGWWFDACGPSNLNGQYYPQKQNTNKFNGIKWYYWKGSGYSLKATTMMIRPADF
Briefly: neutralization ELISA vs Tie-2-Fc. On the procedure: as §1

B1: 2xCon4 (C) 1K (Fc fusion)
chain: [human IgG1 Fc not written out]GGGGGAQQEECEWDPWTCEHMGSGSATGGSGSTASSGSGSATHQEECEWDPWTCEHMLE
notes: also called Pb5714
Molecule B1 registered a Kd with human Ang-2 [1] of 340 pM. In the test with human Ang-2 [1], the koff was found to be 0.00016 s⁻¹. This molecule came in with a kon with human Ang-2 [1] of 480000 M⁻¹ s⁻¹. For the same molecule, the IC50 is 3200 pM with murine Ang-1, 40 pM with human Ang-2 [2] and 20 pM in the test with murine Ang-2.

As usually defined, the Kd is the constant that tells how readily two partners part at equilibrium. High values mean weaker binding, low ones tighter binding. A word on the koff: it is the rate constant with which the complex falls apart. Low readings indicate a long-lived complex, high ones a short-lived complex. As a reminder, the kon is the rate constant with which the complex forms. The term IC50 denotes the point on the concentration scale where inhibition reaches its midpoint. Read a low IC50 as higher potency.

Values taken from patent US20090054323A1 (published 2009).
